# Test results taken from ChEMBL document CHEMBL4888484, “Replenishing the malaria drug discovery pipeline: Screening and hit evaluation of the MMV Hit Generation Library 1 (HGL1) against asexual blood stage Plasmodium falciparum ,using a nano luciferase reporter read-out” (2022).
# Hit rate of the full screen: of about 150,000 compounds, about 540 (0.36%) showed an effect of 50% or more. The list shows a part of the results.
# Test system: Plasmodium falciparum
# Test: Primary screen in NF54 nanoGlo assay, in single point, at 2uM, 72h; a lower Z score goes with more inhibition
# Type: functional, Erythrocyte
# Details: timepoint 72 hour
SMILES,% Inhibition [%],Z score
NC(=O)CN1CCC(Cn2cnc3ccccc32)CC1,-6,0.71
Cc1cccnc1C[C@H](C)Nc1ncncn1,-5,0.6
COc1ccc(-c2ccc(CN3CCN(C)CC3)cn2)cc1F,5,-0.85
COCCN1CC[C@@]2(CCC1=O)CN(Cc1nc(C(C)C)no1)CCN2C,-11,1.75
Cc1nc(C)n(C2CN(C(=O)Cc3csc(-c4ccc(C)o4)n3)C2)n1,1,-0.14
CCC1CN(C(=O)C2CCCN(C(=O)c3ccc(F)cc3)C2)C(CC)CN1CC(C)(C)O (stereo not given),-1,0.08
NC(=O)c1cc(NC(=O)C(F)(F)F)cc(C(N)=O)c1,-4,0.71
CN(C)[C@@H](CNC(=O)C(=O)Nc1ccon1)c1cccn1C,-10,1.76
c1ccc2sc(CN3CCC[C@H](C4OCCO4)C3)nc2c1,5,-0.83
Brc1ccccc1-c1nnc(CNC2CC2)o1,-17,2.13
COc1nc(NC[C@H](O)c2cccs2)nc(N2CCCCCC2)n1,-7,1.37
CC1CCCC(NC(=O)C2N(Cc3ccccc3F)C(=O)[C@H]3C(C(=O)Nc4ccc(F)c(Cl)c4)[C@H]4C=C[C@@]23O4)C1C (stereo not given in full),-2,0.29
CCn1cc(S(=O)(=O)N2CCCC2)cn1,6,-0.87
Cc1cc2c(cc1C)N(Cc1cc(F)cc(F)c1)C(=O)CC(c1cccs1)=N2,1,-0.08
CCc1cc(=O)c2cc(NC(=O)c3c(C4CC4)cnn3C)ccc2[nH]1,-8,0.89
CCc1onc(C)c1NC(=O)N1Cc2cccnc2N2CCC[C@@H]2C1,-4,0.69
CN(C[C@H]1CCCN1C)C(=O)c1cc(F)c(F)cc1F,-6,1.11
O=c1c(-c2ccccc2)c(-c2ccccc2)[nH]c2ccccc12,-21,2.5
CC[C@H](O)CN(CCCOC)Cc1ccc(OC)c(OC)c1,-17,2.23
CCC(=O)N1CCCc2cc(S(=O)(=O)N3CCC(C(=O)NCc4cccs4)CC3)ccc21,-21,2.63
C[C@@H](CCn1cccn1)Nc1ccc(CC#N)cc1,5,-0.55
Cc1ccc(-c2noc3c(NCc4cccc(Cl)c4)nc(C)nc23)cc1,-1,0.12
Cc1ncc(CN(C)Cc2cn(C)nn2)s1,-5,0.57
CCOc1ccc(C(=O)N2CC[C@H]3[C@H](CCC(=O)N3CCCO)C2)o1,-7,1.2
COc1ccc(Cl)cc1C(=O)N1CC(Nc2cccnn2)C1,-12,1.4
COc1ccc(NC(=O)NC23CCCC2C3)cc1S(=O)(=O)N1CCOCC1 (stereo not given),-5,0.74
CC1COC(C(F)(F)F)CN1C(=O)c1ccn2nnnc2c1 (stereo not given),5,-0.7
CC(C)CO[C@H]1CCN(CC(=O)N2CC(=O)Nc3ccccc32)C1,4,-0.4

SMILES,% Inhibition [%],Z score
CC1CCCC(NC(=O)NCCC(N)=O)C1C (stereo not given),-16,1.44
NC(=O)N1CC[C@H](NC(=O)c2ccc(-c3cccs3)s2)C1,-12,1.43
CC(=O)c1cccc(S(=O)(=O)N2CC(N3C(=O)CCC3=O)C2)c1,1,-0.11
CCOC1CC(NCc2c[nH]nc2-c2cccnc2)C12CCC2 (stereo not given),-10,1.18
CS(=O)(=O)CCN1CCN(C(=O)c2cnc(-c3ccncc3)nc2)CC1,1,-0.26
c1ccc(-c2noc(-c3ccc(N4CCC(N5CCCCC5)CC4)nn3)n2)cc1,-10,1.2
Cc1cc(S(=O)(=O)N2CCC3(CCC(=O)N3Cc3ccc(F)cc3)CC2)ccc1F,-6,0.8
COc1cccc(C(=O)N2CCC3(CC2)N[C@@H](Cc2ccccc2)C(=O)N3C2CC2)c1,0,0.03
Cc1ccc(C[C@H]2CCOC3(CCN(C(=O)c4ccco4)CC3)C2)cc1,-23,4.58
CCC1(CNC(=O)CCS(C)(=O)=O)CCC1,-14,2.1
CO[C@@H](CS(=O)(=O)Nc1cccc2ocnc12)C1CCOCC1,-17,2.15
COc1ccc(C2OC(=O)N(Cc3cccnc3)C2(O)c2ccc(OC)cc2)cc1 (stereo not given),32,-3.66
COc1ccccc1NC(=O)N[C@H]1CC(=O)N(CC(C)(C)C)C1,-24,2.09
O=C(O)c1coc(C(=O)N2CC3(CCC3)c3ccccc32)c1,-7,1.3
COCCn1nc(C)c(NC(=O)N2CCC[C@H](c3cc(F)ccc3F)C2)c1C,-3,0.38
Cc1nc2cc(N3CCC[C@H](C(=O)NCc4cccs4)C3)cnc2nc1C,-5,0.93
Cc1nnc(CCC(=O)N2CCCCC2)o1,0,0.02
COc1ccc(-c2nc(-c3ccc(OCc4ccc(F)c(F)c4)c(OC)c3)no2)c(OC)c1,-4,0.61
CCOC1CN(C(=O)NC[C@H]2CCCn3ccnc32)C1,-7,0.69
Cc1cc(NC(=O)NCCc2ccsc2)no1,3,-0.51
COc1cc(N2CCC3(CC2)CC(=O)N(Cc2ccc(F)c(F)c2)C3)ncn1,2,-0.36
CNc1ccnc(-c2cccc3c2OC(F)(F)O3)n1,1,-0.19
Cc1ccc(-n2nnnc2N2CCc3ccccc3C2)cc1,-14,1.86
CCCOCCN1CCN(C[C@@H]2CCCN3CCCC[C@H]23)CC1,-18,2.28
O=C(NC1CCCCCCC1)C1CCC(C(F)(F)F)NC1=O (stereo not given),-10,1.35
CCc1nc(CN2CCc3cc(OC)c(OC)cc3[C@@H]2c2cccnc2)n[nH]1,-6,1.21
COc1ncnc(C)c1-c1ccc(C(=O)N2CCS(=O)(=O)CC2)cc1,3,-0.37
